{"source": "paper PMC5074247", "about": "(Biopharmaceutics & Drug Disposition, 2016)", "experiment": "Tissue distribution of radioactivity in SD rats", "format": "in vivo, Sprague–Dawley rats", "conditions": "oral 1 mg/kg", "note": "Further values from the same series stand in other lists.", "data": [{"molecule": "Cc1cc(N2CCN([C@@H]3CN[C@H](C(=O)N4CCSC4)C3)CC2)n(-c2ccccc2)n1", "note": "[Teneligliptin, 3‐[(2S,4S)‐4‐[4‐(3‐methyl‐1‐phenyl‐1H‐pyrazol‐5‐yl)piperazin‐1‐yl]pyrrolidin‐2‐ylcarbonyl] thiazolidine]", "values": [{"measurement": "Concentration of radioactivity", "setting": "Blood, 0.5 h", "result": "209.9 ± 57.1 ng eq/ml or g"}, {"measurement": "Concentration of radioactivity", "setting": "Blood, 5 h", "result": "29.9 ± 13.7 ng eq/ml or g"}, {"measurement": "Concentration of radioactivity", "setting": "Blood, 12 h", "result": "9.3 ± 2.1 ng eq/ml or g"}, {"measurement": "Concentration of radioactivity", "setting": "Blood, 24 h", "result": "3.9 ± 0.4 ng eq/ml or g"}, {"measurement": "Concentration of radioactivity", "setting": "Blood, 168 h", "result": "0.6 ± 0.7 (N.C.) ng eq/ml or g"}, {"measurement": "Concentration of radioactivity", "setting": "Bone marrow, 0.5 h", "result": "880.0 ± 223.0 ng eq/ml or g"}, {"measurement": "Concentration of radioactivity", "setting": "Bone marrow, 5 h", "result": "289.9 ± 63.9 ng eq/ml or g"}, {"measurement": "Concentration of radioactivity", "setting": "Bone marrow, 12 h", "result": "159.2 ± 15.7 ng eq/ml or g"}, {"measurement": "Concentration of radioactivity", "setting": "Bone marrow, 24 h", "result": "98.6 ± 7.0 ng eq/ml or g"}, {"measurement": "Concentration of radioactivity", "setting": "Bone marrow, 72 h", "result": "30.7 ± 5.7 (N.C.) ng eq/ml or g"}, {"measurement": "Concentration of radioactivity", "setting": "Bone marrow, 168 h", "result": "7.0 ± 4.9 (N.C.) ng eq/ml or g"}, {"measurement": "Concentration of radioactivity", "setting": "Bone, 24 h", "result": "11.8 ± 3.1 ng eq/ml or g"}, {"measurement": "Concentration of radioactivity", "setting": "Bone, 72 h", "result": "3.4 ± 0.9 (N.C.) ng eq/ml or g"}, {"measurement": "Concentration of radioactivity", "setting": "Bone, 168 h", "result": "0.6 ± 0.7 (N.C.) ng eq/ml or g"}, {"measurement": "Concentration of radioactivity", "setting": "Brain, 0.5 h", "result": "24.4 ± 5.3 ng eq/ml or g"}, {"measurement": "Concentration of radioactivity", "setting": "Brain, 5 h", "result": "7.7 ± 2.6 ng eq/ml or g"}, {"measurement": "Concentration of radioactivity", "setting": "Brain, 12 h", "result": "3.3 ± 0.7 ng eq/ml or g"}, {"measurement": "Concentration of radioactivity", "setting": "Brown fat, 0.5 h", "result": "501.8 ± 157.5 ng eq/ml or g"}, {"measurement": "Concentration of radioactivity", "setting": "Brown fat, 5 h", "result": "134.2 ± 55.8 ng eq/ml or g"}, {"measurement": "Concentration of radioactivity", "setting": "Brown fat, 12 h", "result": "57.6 ± 10.4 ng eq/ml or g"}, {"measurement": "Concentration of radioactivity", "setting": "Brown fat, 24 h", "result": "26.9 ± 2.8 ng eq/ml or g"}, {"measurement": "Concentration of radioactivity", "setting": "Brown fat, 72 h", "result": "7.5 ± 1.3 (N.C.) ng eq/ml or g"}, {"measurement": "Concentration of radioactivity", "setting": "Brown fat, 168 h", "result": "3.0 ± 1.1 (N.C.) ng eq/ml or g"}, {"measurement": "Concentration of radioactivity", "setting": "Cecum, 0.5 h", "result": "332.4 ± 101.9 ng eq/ml or g"}, {"measurement": "Concentration of radioactivity", "setting": "Cecum, 5 h", "result": "1103.8 ± 713.4 ng eq/ml or g"}, {"measurement": "Concentration of radioactivity", "setting": "Cecum, 12 h", "result": "627.2 ± 294.5 ng eq/ml or g"}, {"measurement": "Concentration of radioactivity", "setting": "Cecum, 24 h", "result": "123.4 ± 23.7 ng eq/ml or g"}, {"measurement": "Concentration of radioactivity", "setting": "Cecum, 72 h", "result": "12.8 ± 2.7 (N.C.) ng eq/ml or g"}, {"measurement": "Concentration of radioactivity", "setting": "Cecum, 168 h", "result": "5.6 ± 2.5 (N.C.) ng eq/ml or g"}, {"measurement": "Concentration of radioactivity", "setting": "Eyeball, 0.5 h", "result": "107.9 ± 27.9 ng eq/ml or g"}, {"measurement": "Concentration of radioactivity", "setting": "Eyeball, 5 h", "result": "39.0 ± 11.9 ng eq/ml or g"}, {"measurement": "Concentration of radioactivity", "setting": "Eyeball, 12 h", "result": "17.4 ± 3.8 ng eq/ml or g"}, {"measurement": "Concentration of radioactivity", "setting": "Eyeball, 24 h", "result": "8.4 ± 0.9 ng eq/ml or g"}, {"measurement": "Concentration of radioactivity", "setting": "Eyeball, 72 h", "result": "1.5 ± 0.3 (N.C.) ng eq/ml or g"}, {"measurement": "Concentration of radioactivity", "setting": "Fat, 0.5 h", "result": "120.4 ± 28.3 ng eq/ml or g"}, {"measurement": "Concentration of radioactivity", "setting": "Fat, 5 h", "result": "33.3 ± 9.7 ng eq/ml or g"}, {"measurement": "Concentration of radioactivity", "setting": "Fat, 12 h", "result": "17.2 ± 2.8 ng eq/ml or g"}, {"measurement": "Concentration of radioactivity", "setting": "Fat, 24 h", "result": "7.8 ± 1.2 ng eq/ml or g"}, {"measurement": "Concentration of radioactivity", "setting": "Fat, 72 h", "result": "2.2 ± 1.5 (N.C.) ng eq/ml or g"}, {"measurement": "Concentration of radioactivity", "setting": "Large intestine (excluding the cecum), 0.5 h", "result": "416.0 ± 110.3 ng eq/ml or g"}, {"measurement": "Concentration of radioactivity", "setting": "Large intestine (excluding the cecum), 5 h", "result": "342.6 ± 160.7 ng eq/ml or g"}, {"measurement": "Concentration of radioactivity", "setting": "Large intestine (excluding the cecum), 12 h", "result": "475.8 ± 195.4 ng eq/ml or g"}, {"measurement": "Concentration of radioactivity", "setting": "Large intestine (excluding the cecum), 24 h", "result": "120.7 ± 13.9 ng eq/ml or g"}, {"measurement": "Concentration of radioactivity", "setting": "Large intestine (excluding the cecum), 72 h", "result": "19.6 ± 3.5 (N.C.) ng eq/ml or g"}, {"measurement": "Concentration of radioactivity", "setting": "Large intestine (excluding the cecum), 168 h", "result": "7.4 ± 3.3 (N.C.) ng eq/ml or g"}, {"measurement": "Concentration of radioactivity", "setting": "Medulla oblongata, 0.5 h", "result": "26.6 ± 6.0 ng eq/ml or g"}, {"measurement": "Concentration of radioactivity", "setting": "Medulla oblongata, 5 h", "result": "9.3 ± 4.5 ng eq/ml or g"}, {"measurement": "Concentration of radioactivity", "setting": "Medulla oblongata, 12 h", "result": "3.0 ± 0.3 ng eq/ml or g"}, {"measurement": "Concentration of radioactivity", "setting": "Mesenteric lymph nodes, 0.5 h", "result": "853.9 ± 176.8 ng eq/ml or g"}, {"measurement": "Concentration of radioactivity", "setting": "Mesenteric lymph nodes, 5 h", "result": "269.9 ± 46.4 ng eq/ml or g"}, {"measurement": "Concentration of radioactivity", "setting": "Mesenteric lymph nodes, 12 h", "result": "128.0 ± 21.0 ng eq/ml or g"}, {"measurement": "Concentration of radioactivity", "setting": "Mesenteric lymph nodes, 24 h", "result": "77.9 ± 9.6 ng eq/ml or g"}, {"measurement": "Concentration of radioactivity", "setting": "Mesenteric lymph nodes, 72 h", "result": "22.6 ± 3.3 (N.C.) ng eq/ml or g"}, {"measurement": "Concentration of radioactivity", "setting": "Mesenteric lymph nodes, 168 h", "result": "9.2 ± 2.2 (N.C.) ng eq/ml or g"}, {"measurement": "Concentration of radioactivity", "setting": "Pituitary, 0.5 h", "result": "1412.4 ± 316.0 ng eq/ml or g"}, {"measurement": "Concentration of radioactivity", "setting": "Pituitary, 5 h", "result": "406.6 ± 198.9 ng eq/ml or g"}, {"measurement": "Concentration of radioactivity", "setting": "Pituitary, 12 h", "result": "149.8 ± 20.6 ng eq/ml or g"}, {"measurement": "Concentration of radioactivity", "setting": "Pituitary, 24 h", "result": "68.6 ± 11.7 ng eq/ml or g"}, {"measurement": "Concentration of radioactivity", "setting": "Pituitary, 72 h", "result": "13.0 ± 15.0 (N.C.) ng eq/ml or g"}, {"measurement": "Concentration of radioactivity", "setting": "Plasma, 0.5 h", "result": "266.5 ± 74.9 ng eq/ml or g"}, {"measurement": "Concentration of radioactivity", "setting": "Plasma, 5 h", "result": "37.2 ± 17.3 ng eq/ml or g"}, {"measurement": "Concentration of radioactivity", "setting": "Plasma, 12 h", "result": "10.0 ± 2.1 ng eq/ml or g"}, {"measurement": "Concentration of radioactivity", "setting": "Plasma, 24 h", "result": "4.5 ± 0.3 ng eq/ml or g"}, {"measurement": "Concentration of radioactivity", "setting": "Small intestine, 0.5 h", "result": "4476.6 ± 1778.8 ng eq/ml or g"}, {"measurement": "Concentration of radioactivity", "setting": "Small intestine, 5 h", "result": "2688.4 ± 1240.2 ng eq/ml or g"}, {"measurement": "Concentration of radioactivity", "setting": "Small intestine, 12 h", "result": "344.0 ± 52.7 ng eq/ml or g"}, {"measurement": "Concentration of radioactivity", "setting": "Small intestine, 24 h", "result": "179.7 ± 29.3 ng eq/ml or g"}, {"measurement": "Concentration of radioactivity", "setting": "Small intestine, 72 h", "result": "57.8 ± 11.4 (N.C.) ng eq/ml or g"}, {"measurement": "Concentration of radioactivity", "setting": "Small intestine, 168 h", "result": "34.8 ± 13.0 (N.C.) ng eq/ml or g"}, {"measurement": "Concentration of radioactivity", "setting": "Stomach, 0.5 h", "result": "2193.4 ± 953.1 ng eq/ml or g"}, {"measurement": "Concentration of radioactivity", "setting": "Stomach, 5 h", "result": "243.1 ± 117.9 ng eq/ml or g"}, {"measurement": "Concentration of radioactivity", "setting": "Stomach, 12 h", "result": "47.6 ± 12.0 ng eq/ml or g"}, {"measurement": "Concentration of radioactivity", "setting": "Stomach, 24 h", "result": "21.7 ± 1.7 ng eq/ml or g"}, {"measurement": "Concentration of radioactivity", "setting": "Stomach, 72 h", "result": "4.2 ± 1.5 (N.C.) ng eq/ml or g"}, {"measurement": "Concentration of radioactivity", "setting": "Stomach, 168 h", "result": "1.3 ± 1.6 (N.C.) ng eq/ml or g"}]}]}
